The supplement of paper PMC12217912
This is one part of the list. The full chains were built here from the parent and the listed change. Inactive controls read about 0.05.

B1: TEV protease; numbered along this chain (parent)
chain: MGESLFKGPRDYNPISSSICHLTNESDGHTTSLYGIGFGPFIITNKHLFRRNNGTLVVQSLHGVFKVKDTTTLQQHLVDGRDMIIIRMPKDFPPFPQKLKFREPQREERICLVTTNFQTKSMSSMVSDTSCTFPSGDGIFWKHWIQTKDGQCGSPLVSTRDGFIVGIHSASNFTNTNNYFTSVPKNFMELLTNQEAQQWVSGWRLNADSVLWGGHKVFMVKPEEPFQPVKEATQL

Variants of: B1
Assay: raw area under fraction-flipped curve 0-4 h after induction (AUC4h, not background-subtracted), DNA-recorder readout of cleavage of the substrate (dimensionless); higher = more cleavage of the substrate by the protease variant
Details: temperature: 34 °C; time window: 0-4 h after rhamnose induction
Method: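 In vivo DNA recorder in E. coli TOP10(DE3) ΔrhaA at 34 °C. Each TEVp single-site mutant (parent TEVp 0) is paired with a single-site variant of the 7-mer TEVs (canonical ENLYFQ|S). The substrate sits between flexible linkers in a Bxb1-sfGFP-TEVs-SsrA fusion, so cleavage stabilises Bxb1 and speeds flipping of a recombination array, read by NGS. The value is the raw area under the fraction-flipped curve over 0-4 h after rhamnose induction (AUC4h), with ≥20 reads per time point. It is not background-subtracted; inactive controls average about 0.047.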
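Further: Bxb1 expression induced with 0.2% (w/v) L-rhamnose at OD600 near 0.5, cultures sampled hourly, flipped fraction per protease–substrate barcode pair counted by paired-end Illumina sequencing.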

Variant | area with substrate ENLAFQS | area with substrate ENLCFQS | area with substrate ENLDFQS | area with substrate ENLEFQS | area with substrate ENLFFQS | area with substrate ENLGFQS | area with substrate ENLHFQS | area with substrate ENLIFQS | area with substrate ENLKFQS | area with substrate ENLLFQS | area with substrate ENLMFQS | area with substrate ENLNFQS | area with substrate ENLPFQS | area with substrate ENLQFQS | area with substrate ENLRFQS | area with substrate ENLSFQS | area with substrate ENLWFQS | area with substrate ENLVFQS | area with substrate ENLTFQS
R81C | 0.0656 | 0.06 | 0.0594 | 0.0685 | 0.072 | 0.0752 | 0.0708 | 0.0678 | 0.0843 | 0.0837 | 0.0637 | 0.0577 | 0.0461 | 0.0754 | 0.0639 | 0.0653 | 0.0608 | – | –
D82K | 0.0772 | 0.0695 | 0.0684 | – | 0.0466 | – | 0.0551 | 0.0717 | 0.0631 | – | – | 0.0661 | 0.0561 | – | – | – | 0.0517 | – | –
H76R | 0.0698 | – | 0.0553 | 0.0611 | 0.0741 | – | 0.071 | 0.0603 | 0.0726 | 0.0552 | 0.0823 | 0.0518 | 0.0394 | – | 0.0643 | 0.0553 | 0.063 | – | –
K66L | 0.0751 | 0.0651 | 0.0672 | – | 0.0852 | 0.0782 | 0.0645 | 0.0868 | 0.0919 | – | – | 0.0601 | 0.0688 | 0.0547 | 0.0814 | 0.0621 | 0.0588 | 0.0766 | –
L77Y | 0.0629 | 0.0581 | 0.0705 | 0.076 | 0.0918 | – | 0.089 | 0.0695 | 0.0653 | 0.0667 | 0.0516 | – | – | 0.0568 | – | 0.0519 | – | 0.0626 | 0.0677
L77I | 0.0558 | 0.065 | 0.0634 | 0.0551 | 0.067 | – | – | 0.0627 | 0.0609 | 0.0739 | – | 0.0607 | 0.0667 | 0.0568 | 0.0677 | 0.0564 | 0.0405 | 0.0674 | –
N52C | 0.0747 | – | 0.0646 | – | – | 0.069 | 0.0701 | 0.0665 | 0.0662 | 0.0687 | – | 0.0712 | 0.0591 | 0.0408 | 0.0723 | 0.0536 | 0.0677 | – | –
N52P | 0.0497 | – | 0.0687 | 0.0673 | 0.144 | – | – | – | 0.0699 | 0.0492 | 0.0819 | – | – | – | 0.0671 | 0.0653 | – | 0.0753 | 0.0617
V78Y | 0.0645 | 0.0568 | 0.0619 | – | 0.0817 | – | – | 0.0564 | 0.062 | – | 0.0652 | – | – | – | – | 0.0635 | 0.0541 | – | –
V78W | 0.0724 | – | 0.06 | 0.0758 | 0.08 | 0.0612 | 0.0675 | 0.0691 | 0.0653 | – | – | 0.063 | – | 0.0405 | – | – | – | 0.0781 | –
V78P | 0.0737 | 0.0789 | 0.0516 | 0.0513 | 0.0739 | 0.0586 | 0.0585 | 0.0633 | 0.0664 | – | 0.0602 | 0.0606 | 0.0432 | 0.0584 | 0.0596 | 0.0547 | 0.0533 | 0.0616 | –
D69E | 0.0654 | 0.0534 | 0.0665 | – | 0.0729 | – | – | – | 0.0694 | – | – | 0.0629 | 0.072 | – | – | 0.0643 | – | 0.0755 | –
K46A | 0.0785 | 0.0821 | 0.0781 | 0.0965 | 0.0967 | 0.0693 | 0.069 | – | 0.0734 | 0.122 | 0.0736 | 0.0607 | 0.0589 | 0.0754 | 0.0821 | 0.0678 | – | 0.11 | –
